Assay results published in article PMC12820563, “FoxP3 forms a head-to-head dimer in vivo and stabilizes its multimerization on adjacent microsatellites”.
The list shows a part of the results.

biological target: T1, MBP-FoxP1dN (Mus musculus, UniProt P58462 326-579); assay: PD-seq (MBP pull-down with sequencing); 20 mM Tris-HCl pH 7.5, 100 mM NaCl, 1.5 mM MgCl2, 0.4 uM protein, 0.1 uM dsDNA library, 30 min, room temperature, amylose pull-down; high values mean tight binding; details: protein: recombinant; tags: His6-MBP; chain copies: 2; dsDNA, one strand shown
T1 sequence: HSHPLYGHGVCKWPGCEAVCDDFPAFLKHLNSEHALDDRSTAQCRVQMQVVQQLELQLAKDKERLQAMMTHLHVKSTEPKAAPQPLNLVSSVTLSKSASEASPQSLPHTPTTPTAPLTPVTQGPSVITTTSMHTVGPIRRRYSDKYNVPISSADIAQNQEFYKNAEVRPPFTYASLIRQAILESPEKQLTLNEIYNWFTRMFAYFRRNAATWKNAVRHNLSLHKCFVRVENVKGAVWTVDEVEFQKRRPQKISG
How it was run: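 His6-MBP-tagged mouse FoxP3 or FoxP1 fragment lacking the N-terminus, expressed in E. coli, was mixed at 0.4 µM with 0.1 µM Klenow-filled double-stranded degenerate DNA library. Incubation was 30 min at room temperature in Tris pH 7.5 buffer with NaCl and MgCl2. Complexes were caught on amylose resin and washed three times; DNA was released with proteinase K, PCR-barcoded and Illumina-sequenced. Binding is reads-per-million enrichment, pull-down over input, with replicates pooled.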

Sequence | binding signal
GATGATTGTTCTCCCAGCTGATGAATTCGACACATCGAGTAAACAAATTTTCCTAATCTTTCTGTTCAAGCGCCATCTAC | 1.01 RPM ratio (pull-down/input)
GATGATTGTTCTCCCAGCTGATGAATTGAAGCCGTCGAGTAAACAAATTTTCCTAATCTTTCTGTTCAAGCGCCATCTAC | 0.783 RPM ratio (pull-down/input)
GATGATTGTTCTCCCAGCTGATGAATTCCTGAGATCGAGTAAACAAATTTTCCTAATCTTTCTGTTCAAGCGCCATCTAC | 0.837 RPM ratio (pull-down/input)
GATGATTGTTCTCCCAGCTGATGAATTCCACTTGTCGAGTAAACAAATTTTCCTAATCTTTCTGTTCAAGCGCCATCTAC | 0.802 RPM ratio (pull-down/input)
GATGATTGTTCTCCCAGCTGATGAATTGACTAATTCGAGTAAACAAATTTTCCTAATCTTTCTGTTCAAGCGCCATCTAC | 1.18 RPM ratio (pull-down/input)
GATGATTGTTCTCCCAGCTGATGAATTAACGTTTTCGAGTAAACAAATTTTCCTAATCTTTCTGTTCAAGCGCCATCTAC | 1.01 RPM ratio (pull-down/input)
GATGATTGTTCTCCCAGCTGATGAATTACGCCGTTCGAGTAAACAAATTTTCCTAATCTTTCTGTTCAAGCGCCATCTAC | 0.968 RPM ratio (pull-down/input)
GATGATTGTTCTCCCAGCTGATGAATTCGCAGACTCGAGTAAACAAATTTTCCTAATCTTTCTGTTCAAGCGCCATCTAC | 0.806 RPM ratio (pull-down/input)
GATGATTGTTCTCCCAGCTGATGAATTCGTATATTCGAGTAAACAAATTTTCCTAATCTTTCTGTTCAAGCGCCATCTAC | 1.05 RPM ratio (pull-down/input)
GATGATTGTTCTCCCAGCTGATGAATTATGCTTTTCGAGTAAACAAATTTTCCTAATCTTTCTGTTCAAGCGCCATCTAC | 1.39 RPM ratio (pull-down/input)
GATGATTGTTCTCCCAGCTGATGAATTGCCAGCATCGAGTAAACAAATTTTCCTAATCTTTCTGTTCAAGCGCCATCTAC | 1.07 RPM ratio (pull-down/input)
GATGATTGTTCTCCCAGCTGATGAATTTTATTTATCGAGTAAACAAATTTTCCTAATCTTTCTGTTCAAGCGCCATCTAC | 2.95 RPM ratio (pull-down/input)
GATGATTGTTCTCCCAGCTGATGAATTCGCATGCTCGAGTAAACAAATTTTCCTAATCTTTCTGTTCAAGCGCCATCTAC | 0.915 RPM ratio (pull-down/input)
GATGATTGTTCTCCCAGCTGATGAATTGCGAGATTCGAGTAAACAAATTTTCCTAATCTTTCTGTTCAAGCGCCATCTAC | 1.1 RPM ratio (pull-down/input)
GATGATTGTTCTCCCAGCTGATGAATTTGATCCCTCGAGTAAACAAATTTTCCTAATCTTTCTGTTCAAGCGCCATCTAC | 0.857 RPM ratio (pull-down/input)
GATGATTGTTCTCCCAGCTGATGAATTCTGTGCCTCGAGTAAACAAATTTTCCTAATCTTTCTGTTCAAGCGCCATCTAC | 0.923 RPM ratio (pull-down/input)
GATGATTGTTCTCCCAGCTGATGAATTTGCAATCTCGAGTAAACAAATTTTCCTAATCTTTCTGTTCAAGCGCCATCTAC | 1.07 RPM ratio (pull-down/input)
GATGATTGTTCTCCCAGCTGATGAATTGGCGTACTCGAGTAAACAAATTTTCCTAATCTTTCTGTTCAAGCGCCATCTAC | 0.914 RPM ratio (pull-down/input)
GATGATTGTTCTCCCAGCTGATGAATTCTAAGCTTCGAGTAAACAAATTTTCCTAATCTTTCTGTTCAAGCGCCATCTAC | 0.832 RPM ratio (pull-down/input)
GATGATTGTTCTCCCAGCTGATGAATTTACCAGATCGAGTAAACAAATTTTCCTAATCTTTCTGTTCAAGCGCCATCTAC | 1.18 RPM ratio (pull-down/input)
GATGATTGTTCTCCCAGCTGATGAATTGGGCTGATCGAGTAAACAAATTTTCCTAATCTTTCTGTTCAAGCGCCATCTAC | 0.881 RPM ratio (pull-down/input)

Sequence | binding signal
GATGATTGTTCTCCCAGCTGATGAATTTCGTTTATCGAGTAAACAAATTTTCCTAATCTTTCTGTTCAAGCGCCATCTAC | 1.41 RPM ratio (pull-down/input)
GATGATTGTTCTCCCAGCTGATGAATTGCGACCGTCGAGTAAACAAATTTTCCTAATCTTTCTGTTCAAGCGCCATCTAC | 1.02 RPM ratio (pull-down/input)
GATGATTGTTCTCCCAGCTGATGAATTCACCAGGTCGAGTAAACAAATTTTCCTAATCTTTCTGTTCAAGCGCCATCTAC | 0.823 RPM ratio (pull-down/input)
GATGATTGTTCTCCCAGCTGATGAATTTCTGCAATCGAGTAAACAAATTTTCCTAATCTTTCTGTTCAAGCGCCATCTAC | 1.1 RPM ratio (pull-down/input)
GATGATTGTTCTCCCAGCTGATGAATTCGCGAGGTCGAGTAAACAAATTTTCCTAATCTTTCTGTTCAAGCGCCATCTAC | 0.764 RPM ratio (pull-down/input)
GATGATTGTTCTCCCAGCTGATGAATTTCCCTGCTCGAGTAAACAAATTTTCCTAATCTTTCTGTTCAAGCGCCATCTAC | 0.78 RPM ratio (pull-down/input)
GATGATTGTTCTCCCAGCTGATGAATTCTGTGTATCGAGTAAACAAATTTTCCTAATCTTTCTGTTCAAGCGCCATCTAC | 1.79 RPM ratio (pull-down/input)
GATGATTGTTCTCCCAGCTGATGAATTACGTCCGTCGAGTAAACAAATTTTCCTAATCTTTCTGTTCAAGCGCCATCTAC | 0.998 RPM ratio (pull-down/input)
GATGATTGTTCTCCCAGCTGATGAATTTAAAGACTCGAGTAAACAAATTTTCCTAATCTTTCTGTTCAAGCGCCATCTAC | 0.803 RPM ratio (pull-down/input)
GATGATTGTTCTCCCAGCTGATGAATTGCAATCATCGAGTAAACAAATTTTCCTAATCTTTCTGTTCAAGCGCCATCTAC | 1.48 RPM ratio (pull-down/input)
GATGATTGTTCTCCCAGCTGATGAATTCTTGTGCTCGAGTAAACAAATTTTCCTAATCTTTCTGTTCAAGCGCCATCTAC | 0.933 RPM ratio (pull-down/input)
GATGATTGTTCTCCCAGCTGATGAATTGCCTCGCTCGAGTAAACAAATTTTCCTAATCTTTCTGTTCAAGCGCCATCTAC | 0.905 RPM ratio (pull-down/input)
GATGATTGTTCTCCCAGCTGATGAATTCACTGTATCGAGTAAACAAATTTTCCTAATCTTTCTGTTCAAGCGCCATCTAC | 1.09 RPM ratio (pull-down/input)
GATGATTGTTCTCCCAGCTGATGAATTGCTCGCGTCGAGTAAACAAATTTTCCTAATCTTTCTGTTCAAGCGCCATCTAC | 1.03 RPM ratio (pull-down/input)
GATGATTGTTCTCCCAGCTGATGAATTGGCCGAATCGAGTAAACAAATTTTCCTAATCTTTCTGTTCAAGCGCCATCTAC | 0.859 RPM ratio (pull-down/input)
GATGATTGTTCTCCCAGCTGATGAATTGGTCCGTTCGAGTAAACAAATTTTCCTAATCTTTCTGTTCAAGCGCCATCTAC | 0.877 RPM ratio (pull-down/input)
GATGATTGTTCTCCCAGCTGATGAATTCTATTCATCGAGTAAACAAATTTTCCTAATCTTTCTGTTCAAGCGCCATCTAC | 0.915 RPM ratio (pull-down/input)
GATGATTGTTCTCCCAGCTGATGAATTGCGTCAATCGAGTAAACAAATTTTCCTAATCTTTCTGTTCAAGCGCCATCTAC | 1.25 RPM ratio (pull-down/input)
GATGATTGTTCTCCCAGCTGATGAATTCTCTCGCTCGAGTAAACAAATTTTCCTAATCTTTCTGTTCAAGCGCCATCTAC | 0.825 RPM ratio (pull-down/input)
GATGATTGTTCTCCCAGCTGATGAATTCCGGCAGTCGAGTAAACAAATTTTCCTAATCTTTCTGTTCAAGCGCCATCTAC | 0.802 RPM ratio (pull-down/input)
GATGATTGTTCTCCCAGCTGATGAATTCGAACTTTCGAGTAAACAAATTTTCCTAATCTTTCTGTTCAAGCGCCATCTAC | 0.83 RPM ratio (pull-down/input)

Sequence | binding signal
GATGATTGTTCTCCCAGCTGATGAATTTTGCGAATCGAGTAAACAAATTTTCCTAATCTTTCTGTTCAAGCGCCATCTAC | 0.989 RPM ratio (pull-down/input)
GATGATTGTTCTCCCAGCTGATGAATTATACTTGTCGAGTAAACAAATTTTCCTAATCTTTCTGTTCAAGCGCCATCTAC | 1.05 RPM ratio (pull-down/input)
GATGATTGTTCTCCCAGCTGATGAATTTTGCCAGTCGAGTAAACAAATTTTCCTAATCTTTCTGTTCAAGCGCCATCTAC | 0.866 RPM ratio (pull-down/input)
GATGATTGTTCTCCCAGCTGATGAATTAACTAGGTCGAGTAAACAAATTTTCCTAATCTTTCTGTTCAAGCGCCATCTAC | 0.8 RPM ratio (pull-down/input)
GATGATTGTTCTCCCAGCTGATGAATTACCAGTGTCGAGTAAACAAATTTTCCTAATCTTTCTGTTCAAGCGCCATCTAC | 0.952 RPM ratio (pull-down/input)
GATGATTGTTCTCCCAGCTGATGAATTATGGATCTCGAGTAAACAAATTTTCCTAATCTTTCTGTTCAAGCGCCATCTAC | 0.856 RPM ratio (pull-down/input)
GATGATTGTTCTCCCAGCTGATGAATTCTGAGTATCGAGTAAACAAATTTTCCTAATCTTTCTGTTCAAGCGCCATCTAC | 0.9 RPM ratio (pull-down/input)
GATGATTGTTCTCCCAGCTGATGAATTTGAGGGGTCGAGTAAACAAATTTTCCTAATCTTTCTGTTCAAGCGCCATCTAC | 0.748 RPM ratio (pull-down/input)
GATGATTGTTCTCCCAGCTGATGAATTTGAAGATTCGAGTAAACAAATTTTCCTAATCTTTCTGTTCAAGCGCCATCTAC | 0.925 RPM ratio (pull-down/input)
GATGATTGTTCTCCCAGCTGATGAATTGTCGTAATCGAGTAAACAAATTTTCCTAATCTTTCTGTTCAAGCGCCATCTAC | 1.58 RPM ratio (pull-down/input)
GATGATTGTTCTCCCAGCTGATGAATTGAAACGATCGAGTAAACAAATTTTCCTAATCTTTCTGTTCAAGCGCCATCTAC | 0.87 RPM ratio (pull-down/input)
GATGATTGTTCTCCCAGCTGATGAATTATTATAATCGAGTAAACAAATTTTCCTAATCTTTCTGTTCAAGCGCCATCTAC | 1.5 RPM ratio (pull-down/input)
GATGATTGTTCTCCCAGCTGATGAATTCCTGGAGTCGAGTAAACAAATTTTCCTAATCTTTCTGTTCAAGCGCCATCTAC | 0.712 RPM ratio (pull-down/input)
GATGATTGTTCTCCCAGCTGATGAATTATTCCTCTCGAGTAAACAAATTTTCCTAATCTTTCTGTTCAAGCGCCATCTAC | 1 RPM ratio (pull-down/input)
GATGATTGTTCTCCCAGCTGATGAATTACAACTTTCGAGTAAACAAATTTTCCTAATCTTTCTGTTCAAGCGCCATCTAC | 1.33 RPM ratio (pull-down/input)
GATGATTGTTCTCCCAGCTGATGAATTAGTTCATTCGAGTAAACAAATTTTCCTAATCTTTCTGTTCAAGCGCCATCTAC | 0.908 RPM ratio (pull-down/input)
GATGATTGTTCTCCCAGCTGATGAATTCCCCTTGTCGAGTAAACAAATTTTCCTAATCTTTCTGTTCAAGCGCCATCTAC | 0.813 RPM ratio (pull-down/input)
GATGATTGTTCTCCCAGCTGATGAATTACGTCTGTCGAGTAAACAAATTTTCCTAATCTTTCTGTTCAAGCGCCATCTAC | 0.971 RPM ratio (pull-down/input)
GATGATTGTTCTCCCAGCTGATGAATTGCGACCATCGAGTAAACAAATTTTCCTAATCTTTCTGTTCAAGCGCCATCTAC | 1.09 RPM ratio (pull-down/input)
GATGATTGTTCTCCCAGCTGATGAATTGTGAAGCTCGAGTAAACAAATTTTCCTAATCTTTCTGTTCAAGCGCCATCTAC | 0.905 RPM ratio (pull-down/input)
GATGATTGTTCTCCCAGCTGATGAATTGCGAGCCTCGAGTAAACAAATTTTCCTAATCTTTCTGTTCAAGCGCCATCTAC | 0.956 RPM ratio (pull-down/input)
